# Laboratory results as given in patent US8592383B2, “Cycloalkyl-fused tetrahydroquinolines as CRTH2 receptor modulators” (Merck Sharp & Dohme Corp., priority 2011, dated 2013).
# Biological target: T1, hCRTH2 (Homo sapiens, UniProt Q9Y5Y4)
# T1 sequence (Q9Y5Y4 1-395): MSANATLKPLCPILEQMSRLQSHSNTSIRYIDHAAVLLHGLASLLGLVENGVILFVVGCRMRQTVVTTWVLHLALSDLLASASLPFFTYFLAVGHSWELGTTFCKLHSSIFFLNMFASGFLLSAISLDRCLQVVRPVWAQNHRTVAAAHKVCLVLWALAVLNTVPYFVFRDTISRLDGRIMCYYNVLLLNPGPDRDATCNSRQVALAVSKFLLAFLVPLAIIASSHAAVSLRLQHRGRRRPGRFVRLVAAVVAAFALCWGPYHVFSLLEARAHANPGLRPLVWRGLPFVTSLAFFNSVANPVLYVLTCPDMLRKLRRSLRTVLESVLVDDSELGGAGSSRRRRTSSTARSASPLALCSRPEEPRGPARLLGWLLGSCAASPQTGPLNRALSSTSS
# Assay: biochemical
# Conditions: Ki (nM), Table A; Radioligand Binding Assay A, [3H]PGD2, HEK-hCRTH2 membranes
row,SMILES,Ki [nM]
1,"O=C(O)CCC(=O)N(C1CC1)C1c2ccccc2N(C(=O)c2cc(F)cc(F)c2)C2CCCC21 (racemic) [17BD, 4-(cyclopropyl((cis,cis-4-(3,5-difluorobenzoyl)-2,3,3a,4,9,9a-hexahydro-1H-cyclopenta[b]quinolin-9-yl)amino)-4-oxobutanoic acid]",20.1 to 200
2,"O=C(O)CCC(=O)N(C1CC1)C1c2ccccc2N(C(=O)C2CCCCC2)C2CCCC21 (racemic) [17AQ, 4-((cis,cis-4-(cyclohexanecarbonyl)-2,3,3a,4,9,9a-hexahydro-1H-cyclopenta[b]quinolin-9-yl)(cyclopropyl)amino)-4-oxobutanoic acid]",20.1 to 200
3,"C[C@H](OC(=O)N1c2cc(F)ccc2C(N(C(=O)CCC(=O)O)C2CC2)C2CCCC21)c1ccccc1 (single isomer, unassigned) [compound 144]",1 to 5
4,"CCN(C(=O)C[C@@H](C)C(=O)O)C1c2ccccc2N(C(=O)OCc2ccccc2)C2CCCC12 (mixture of isomers) [compound 105, 4-(phenylmethyl) cis,cis-9-[(3(R)-carboxy-1-oxobutyl)ethylamino]-1,2,3,3a,9,9a-hexahydro-4H-cyclopenta[b]quinoline-4-carboxylate]",201 to 7500
5,"CCN(C(=O)CCC(=O)O)C1c2ccccc2N(C(=O)c2ccc(F)c(C(F)(F)F)c2)C2CCC12 (single isomer, unassigned) [compound 87, 4-(ethyl(cis, cis-3-(4-fluoro-3-(trifluoromethyl)benzoyl)-1,2,2a,3,8,8a-hexahydrocyclobuta[b]quinolin-8-yl)amino)-4-oxobutanoic acid]",5.1 to 20
6,"O=C(O)CCC(=O)N(C1CCC1)C1c2ccc(Cl)cc2N(C(=O)c2cccc(F)c2)C2CCCC21 (single isomer, unassigned) [17CN, 4-[[cis,cis-6-chloro-4-(3-fluorobenzoyl)-2,3,3a,4,9,9a-hexahydro-1H-cyclopenta[b]quinolin-9-yl]cyclobutylamino]-4-oxobutanoic acid]",5.1 to 20
7,"C[C@H](NC(=O)N(C1CC1)C1c2ccccc2N(C(=O)c2ccc(OC(F)(F)F)cc2)C2CCCC21)C(=O)O (mixture of isomers) [35E, N-[[cyclopropyl[cis,cis-2,3,3a,4,9,9a-hexahydro-4-[4-(trifluoromethoxy)benzoyl]-1H-cyclopenta[b]quinolin-9-yl]amino]carbonyl]-l-alanine]",20.1 to 200
8,"O=C(O)CCC(=O)N(C1CCC1)[C@@H]1c2ccccc2N(C(=O)c2cc(F)cc(F)c2)[C@@H]2CCC[C@@H]21 (single isomer, unassigned) [17DC, 4-[cyclobutyl[cis,cis-4-(3,5-difluorobenzoyl)-2,3,3a,4,9,9a-hexahydro-1H-cyclopenta[b]quinolin-9-yl]amino]-4-oxobutanoic acid]",20.1 to 200
9,"COc1ccc(CC(=O)N2c3ccccc3C(N(C(=O)CCC(=O)O)C3CC3)C3CCCC32)cc1 (racemic) [17BF, 4-(cyclopropyl(cis,cis-4-(2-(4-methoxyphenyl)acetyl)-2,3,3a,4,9,9a-hexahydro-1H-cyclopenta[b]quinolin-9-yl)amino)-4-oxobutanoic acid]",20.1 to 200
10,"O=C(O)CCC(=O)N(C1CCC1)C1c2ccc(Cl)cc2N(C(=O)c2ccc(F)cc2)C2CCCC21 (single isomer, unassigned) [17CM, 4-[[cis,cis-6-chloro-4-(4-fluorobenzoyl)-2,3,3a,4,9,9a-hexahydro-1H-cyclopenta[b]quinolin-9-yl]cyclobutylamino]-4-oxobutanoic acid]",5.1 to 20
11,"O=C(O)CCC(=O)N(C1CC1)[C@@H]1c2cc(-c3ccc(F)cc3)ccc2N(C(=O)c2ccc(OC(F)(F)F)cc2)[C@@H]2CCC[C@@H]21 (single isomer, unassigned) [compound 153, 4-(cyclopropyl((cis, cis)-7-(4-fluorophenyl)-4-(4-(trifluoromethoxy)benzoyl)-2,3,3a,4,9,9a-hexahydro-1H-cyclopenta[b]quinolin-9-yl)amino)-4-oxobutanoic acid]",20.1 to 200
12,"CCN(C(=O)CCC(=O)NS(C)(=O)=O)C1c2ccccc2N(C(=O)c2ccc(SC(F)(F)F)cc2)C2CCC12 (single isomer, unassigned) [11C, N1-ethyl-N4-(methylsulfonyl)-N1-(cis,cis-3-(4-(trifluoromethylthio)benzoyl)-1,2,2a,3,8,8a-hexahydrocyclobuta[b]quinolin-8-yl)succinamide]",5.1 to 20
13,"O=C(O)CCC(=O)N(C1CC1)C1c2ccccc2N(C(=O)c2ccc(OC(F)(F)F)cc2)C2CCCC21 (single isomer, unassigned) [17CJ, 4-[cyclopropyl[cis,cis-2,3,3a,4,9,9a-hexahydro-4-[4-(trifluoromethoxy)benzoyl]-1H-cyclopenta[b]quinolin-9-yl]amino]-4-oxobutanoic acid]",201 to 7500
14,"C=CCN(C(=O)CCC(=O)O)C1c2ccccc2N(C(=O)c2ccc(OC(F)(F)F)cc2)C2CCCC12 (racemic) [17CB, 4-[[cis,cis-2,3,3a,4,9,9a-hexahydro-4-[4-(trifluoromethoxy)benzoyl]-1H-cyclopenta[b]quinolin-9-yl](2-propenyl)amino]-4-oxobutanoic acid]",5.1 to 20
15,"O=C(O)CCC(=O)N(C1CC1)C1c2ccccc2N(C(=O)c2cccs2)C2CCCC21 (single isomer, unassigned) [17BN, 4-[cyclopropyl[cis,cis-2,3,3a,4,9,9a-hexahydro-4-(2-thienylcarbonyl)-1H-cyclopenta[b]quinolin-9-yl]amino]-4-oxobutanoic acid]",5.1 to 20
16,"O=C(O)CCC(=O)N(C1CC1)C1c2ccccc2N(C(=O)c2ccc(F)cc2)C2CCC21 (single isomer, unassigned) [27Q, 4-[cyclopropyl[cis, cis-3-(4-fluorobenzoyl)-1,2,2a,3,8,8a-hexahydrocyclobuta[b]quinolin-8-yl]amino]-4-oxobutanoic acid]",5.1 to 20
17,"CS(=O)(=O)NC(=O)CCC(=O)N(C1CC1)[C@H]1c2cc(F)ccc2N(C(=O)c2ccc(OC(F)(F)F)cc2)[C@H]2CCC[C@H]21 [compound 11, N1-cyclopropyl-N1-((3aS,9R,9aR)-7-fluoro-4-(4-(trifluoromethoxy)benzoyl)-2,3,3a,4,9,9a-hexahydro-1H-cyclopenta[b]quinolin-9-yl)-N4-(methylsulfonyl)succinamide]",201 to 7500
18,"O=C(O)CCC(=O)N(C1CCC1)C1c2ccccc2N(C(=O)C2CC2c2ccccc2)C2CCCC21 (single isomer, unassigned) [17DD, 4-[cyclobutyl[cis,cis-2,3,3a,4,9,9a-hexahydro-4-[(trans-2-phenylcyclopropyl)carbonyl]-1H-cyclopenta[b]quinolin-9-yl]amino]-4-oxobutanoic acid]",20.1 to 200
19,"O=C(O)CCC(=O)N(CCC(F)(F)F)C1c2ccccc2N(C(=O)c2ccc(OC(F)(F)F)cc2)C2CCCC12 (racemic) [17AB, 4-[[cis,cis-2,3,3a,4,9,9a-hexahydro-4-[4-(trifluoromethoxy)benzoyl]-1H-cyclopenta[b]quinolin-9-yl](3,3,3-trifluoropropyl)amino]-4-oxobutanoic acid]",20.1 to 200
20,"O=C(O)COC(=O)N(C1CC1)C1c2ccccc2N(c2nnc(Cc3ccc(OC(F)(F)F)cc3)o2)C2CCCC21 (single isomer, unassigned) [38G, [[[cyclopropyl[cis,cis-2,3,3a,4,9,9a-hexahydro-4-[5-[[4-(trifluoromethoxy)phenyl]methyl]-1,3,4-oxadiazol-2-yl]-1H-cyclopenta[b]quinoline-9-yl]amino]carbonyl]oxy]acetic acid]",201 to 7500
21,"CN(CC(=O)O)C(=O)N(C1CC1)C1c2ccccc2N(C(=O)c2cccc(OC(F)(F)F)c2)C2CCCC21 (single isomer, unassigned) [35i, N-[[cyclopropyl[cis, cis-2,3,3a,4,9,9a-hexahydro-4-[3-(trifluoromethoxy)benzoyl]-1H-cyclopenta[b]quinolin-9-yl]amino]carbonyl]-N-methylglycine]",5.1 to 20
22,"CCc1ccc(C(=O)N2c3ccccc3C(N(CC)C(=O)CCC(=O)O)C3CCCC32)cc1 (single isomer, unassigned) [compound 65, 4-[ethyl[cis, cis-4-(4-ethylbenzoyl)-2,3,3a,4,9,9a-hexahydro-1H-cyclopenta[b]quinolin-9-yl]amino]-4-oxobutanoic acid]",5.1 to 20
23,"O=C(O)CCC(=O)N(C1CC1)[C@@H]1c2ccc(Cl)cc2N(C(=O)OCc2ccc(F)cc2F)[C@@H]2CCC[C@@H]21 (single isomer, unassigned) [22Y, 4-[(2,4-difluorophenyl)methyl] cis, cis-[(3-carboxy-1-oxopropyl)cyclopropylamino]-6-chloro-1,2,3,3a,9,9a-hexahydro-4H-cyclopenta[b]quinoline-4-carboxylate]",5.1 to 20
24,"O=C(O)CCC(=O)N(C1CC1)C1c2ccccc2N(C(=O)O[C@H](c2ccccc2)C(F)(F)F)C2CCCC21 (single isomer, unassigned) [compound 78]",5.1 to 20
25,"O=C(O)CCC(=O)N(C1CC1)C1c2ccc(Cl)cc2N(C(=O)c2cc(F)cc(F)c2)C2CCC21 (single isomer, unassigned) [27M, 4-[[cis, cis-5-chloro-3-(3,5-difluorobenzoyl)-1,2,2a,3,8,8a-hexahydrocyclobuta[b]quinolin-8-yl]cyclopropylamino]-4-oxobutanoic acid]",5.1 to 20
26,"O=C(O)CCC(=O)N(C1CC1)C1c2ccccc2N(C(=O)OCc2ccc(OC(F)(F)F)c(F)c2)C2CCCC21 (single isomer, unassigned) [compound 112, 4-[[3-fluoro-4-(trifluoromethoxy)phenyl]methyl] cis, cis-[(3-carboxy-1-oxopropyl)cyclopropylamino]-1,2,3,3a,9,9a-hexahydro-4H-cyclopenta[b]quinoline-4-carboxylate]",20.1 to 200
